The other results are listed elsewhere or left out.
B1: chr22:38736040:38736148:-|3pUTR|ENSG00000100242|msi1|FALSE|unique (ssRNA)
RNA: GGGAGUUCUACAGUCCGACGAUCCCCCAUGCAGAUGAAAAGGACGGGCAGGGUCUCCUGAGCAGCAGGUGGCUCGAGGCGGUUAGCAGGCUCCAGCAGCUCCCUUCUUCCUUCCCUCUGUGCCCGUGGCGUCUGCUUCCCAUCCAACAGAGGAUUGAGCAUCA
B2: chr11:6768009:6768957:-|CDS|ENSG00000188124|control|control|control (ssRNA)
RNA: GGGAGUUCUACAGUCCGACGAUCCGUGACAGGUGUGACUUUCCUCUUGCUCCCCAUUUCUGCCAUUGUGGCCUCCUACACACUAGUCCUAUUCACUGUGCUUCGUAUGCCAUCAAAUGAGGGGAGGAAGAAAGCCCUUGUCACCAACAGAGGAUUGAGCAUCA
B3: chr16:75660256:75661249:-|CDS|ENSG00000284484|control|control|control (ssRNA)
RNA: GGGAGUUCUACAGUCCGACGAUCCUGGGGCAAGAUAUGCAGGUAGGGGCUUCAAGCAACUCAGGACUCAAAUGCAGCAGUUUUAGGUUGAGGGGUCUACACGGGCCUGCCACAGGAACCCAAGGAUGCAGCUUUGCAAAGUAUCAACAGAGGAUUGAGCAUCA
B4: chr10:133362484:133362867:-|three_prime_utr|ENSG00000127884|control|control|control (ssRNA)
RNA: GGGAGUUCUACAGUCCGACGAUCAACCAGCUGCCCCUGCUUCACACCUCUGCUUGGAGAGGACAAGUGCAGCCUGUCAGUUUUAGAAGCAAGUAAAUCAUCCUCUUUUCAAGAGCAGUGUCCGUGGUGUGCAGUUCCUCUCCACAACAGAGGAUUGAGCAUCA
B5: chr6:105098072:105098315:-|3pUTR|ENSG00000112276|msi1|FALSE|unique (ssRNA)
RNA: GGGAGUUCUACAGUCCGACGAUCGUACUUUAAAUUCAUUUAUACAAAUGAAUAAGUGUAUCUUUGUAUAAUGCAUAAAUACAUAGAUAAAAACAUGUUUGCUGCCAAAGUUCCCAAUAAGAUGCUUCCUGUGUUUUUUGGCCUCAACAGAGGAUUGAGCAUCA
B6: chr3:149738563:149738664:-|3pUTR|ENSG00000114744|unk|total|mutant (ssRNA)
RNA: GGGAGUUCUACAGUCCGACGAUCUGGAUUAUUAUGGGUCCUUGAUAAAUUCUCAAAGCCUUUUUUUUUGUUCAUCUCUAAAACCGGAAUACCGGAUUACCUACCACAUUGACUCGUAAGGACUAUAUGAGACCAUGUAUACCGCAACAGAGGAUUGAGCAUCA

These binders were tested against T1, UNK ZnF1-6 (called full-length) (human, UniProt Q9C0B0 30-357) (assay: nsRBNS (natural sequence RNA bind-n-seq); RBNS binding buffer (assumed for nsRBNS): 25 mM Tris pH 7.5, 150 mM KCl, 3 mM MgCl2, 0.01% Triton X-100, 500 ug/ml BSA, 20 U/ml SUPERase-In, 4 C; UNK is unkempt and MSI1 is Musashi-1; names of the RNAs are library labels; protein concentration not given here; high values mean tight binding).
T1 sequence: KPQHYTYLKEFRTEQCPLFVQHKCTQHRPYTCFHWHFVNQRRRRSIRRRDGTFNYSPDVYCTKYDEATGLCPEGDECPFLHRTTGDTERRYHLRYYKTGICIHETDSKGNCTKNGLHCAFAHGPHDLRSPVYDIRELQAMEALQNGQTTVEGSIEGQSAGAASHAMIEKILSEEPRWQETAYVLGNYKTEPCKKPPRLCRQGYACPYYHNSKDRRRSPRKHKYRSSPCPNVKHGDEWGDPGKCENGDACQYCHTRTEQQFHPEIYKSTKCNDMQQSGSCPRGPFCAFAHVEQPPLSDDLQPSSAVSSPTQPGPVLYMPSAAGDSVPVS

Row | Binder | binding signal [enrichment R]
1 | B1 | 0.962
2 | B2 | 1.12
3 | B3 | 1.02
4 | B4 | 0.89
5 | B5 | 0.555
6 | B6 | 0.422

From paper PMC12136788
